# Whole data set: some 33,000 sequences, median “E-score (-0.5 to 0.5)” near -0.01, cut for the highest 2% near 0.26. The list shows a part of the results.
# Target: Ste12 (UniProt P13574)
# Assay: PBM E-score (8-mer binding enrichment) (E-score (-0.5 to 0.5)); higher = stronger / more preferred TF binding; most listed sequences are background and not binding sites
# Conditions: protein concentration: 200 nM; construct: GST-DNA-binding domain
# Description: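 Universal 'all 10-mer' protein binding microarrays (Agilent AMADID 015681) probed with GST-tagged S. cerevisiae TFs (full-length or DBD) made by in vitro transcription/translation (PURExpress), about 100-200 nM. Bound TF was detected with fluorescent anti-GST. Each ungapped 8-mer (which stands for itself and its reverse complement) is scored by the PBM enrichment score (E-score), a modified Wilcoxon-Mann-Whitney statistic from -0.5 to +0.5, computed with the Universal PBM Analysis Suite. Scale: above 0.35 generally sequence-specific binding.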
row,Sequence,PBM E-score
1,CGTTGCTA,-0.169
2,CCAGCCAA,0.0654
3,AGCTCACT,-0.0668
4,CAGTCAAG,-0.142
5,GGATCCCA,-0.184
6,GCACCTAC,-0.138
7,TAGACCAA,0.0602
8,AGAACACA,-0.102
9,AGGTTAGC,-0.211
10,CTATGTGA,0.0261
11,CGAACATA,0.14
12,AGACATAG,0.0698
13,TCAATGAA,0.055
14,AGCGGCTA,-0.0915
15,ATTGCGCC,-0.0165
16,ACCTTCTC,0.0171
17,ACCTGCCG,0.0159
18,GGGGGGAC,-0.148
19,CCGCTGAG,-0.236
20,ACTTGGAC,-0.066
21,AAAAAATC,0.363
22,CAGTGATG,0.126
23,CCGATATC,-0.0612
24,AAGGGCTG,-0.253
25,ACGCGGTG,0.0169

row,Sequence,PBM E-score
1,AATACAAA,0.265
2,GAAGATGC,0.0101
3,GGCGATCA,-0.186
4,CCTATACC,-0.0407
5,AGATTGGA,-0.02
6,CAGACAGG,-0.0968
7,GAACCTAA,0.0436
8,GGAGGGAA,-0.0917
9,CGCCAAAC,-0.0585
10,AGCCTTCA,-0.11
11,CTAGTGAC,-0.0777
12,TGCAGCCA,0.0119
13,CATGAGCC,-0.12
14,AATCACTA,0.104
15,ATTGGGGA,-0.0774
16,CGCAGTAG,-0.0747
17,AATGCCGT,0.0806
18,AGGACGAA,-0.0297
19,CTCGCCCA,0.0131
20,TAAAGCAA,0.125
21,CATTGCAA,0.028
22,GGTACAAA,-0.00706
23,CTCGATGA,-0.0183
24,AACACCTC,-0.134
25,CGCATCGA,0.0394

row,Sequence,PBM E-score
1,AGCCAGCT,-0.179
2,TATCACCA,-0.0658
3,ATTGTCCG,0.19
4,CCATAGCG,-0.159
5,AATTGCCA,0.0211
6,GTGCCGGA,0.0744
7,CCGTCTCG,-0.0676
8,CTAGAGGC,-0.185
9,ACGATCGA,-0.106
10,AGTGCAGC,-0.257
11,ATCACGGC,-0.104
12,GTTCCTGA,-0.146
13,AGTGACGC,-0.138
14,AATATGAT,0.222
15,CGCTTTTA,0.0855
16,GGACGGGA,-0.205
17,GAGTAAGA,0.0732
18,AACCACTA,-0.00019
19,GCTTAACC,-0.153
20,CACGATTC,0.0616
21,AACAAGGC,-0.00777
22,CGAAACAC,0.348
23,GACTTCCC,-0.208
24,GCTCGACA,-0.106
25,CAGGCCTC,-0.239

row,Sequence,PBM E-score
1,ACCTGGAG,0.0957
2,TACTGCAA,0.00842
3,CGCATAAC,0.152
4,ATTACGTC,0.0379
5,AACTTGCT,-0.0356
6,TATTCCGA,0.0499
7,TGCAGGCA,-0.137
8,TACAGTGA,0.00578
9,AGCAAGGC,-0.182
10,CCAATCGC,-0.0665
11,TCCAGCCA,-0.0912
12,ACCCTTGG,-0.129
13,ACAAGTCA,-0.0869
14,AGATGCTA,0.0477
15,ACACGTGG,-0.00035
16,AAATGCAT,0.138
17,ATGACAGG,-0.0808
18,CTGTCGGA,-0.204
19,GGCATAAC,0.05
20,AACATGGG,0.198
21,ACCCGGGG,-0.0905
22,TAGTGGGA,-0.0356
23,GATTACGC,-0.024
24,TCAGGAAA,-0.0165
25,ATATTGGA,-0.0137

row,Sequence,PBM E-score
1,AAGTGATC,-0.0308
2,CTCGGTCA,0.0667
3,CCGAGCCA,-0.0123
4,TAGTATGA,0.112
5,CGAAAGAG,-0.00574
6,GCAAATGA,-0.0783
7,AATTTGCT,0.0493
8,CAAATGCA,-0.211
9,AATTTAAT,0.159
10,GCGAGAGC,0.0234
11,AGACAATA,0.163
12,CATTATCA,0.0126
13,ACCGCTAA,0.147
14,AGCGAAAG,0.0699
15,GAAAGTAC,-0.00655
16,AGAGCCCC,-0.201
17,CCACATAC,0.00728
18,ACACTTGA,-0.0763
19,TCATAGAA,0.257
20,GACGATAC,-0.0155
21,GACCAACA,0.0581
22,ATAGAAGA,-0.0128
23,ACATAGGT,-0.0419
24,GCATCATA,0.0871
25,ATCACGCC,-0.129

row,Sequence,PBM E-score
1,ACACACCA,0.0664
2,GTAGACGA,-0.129
3,CCTACGCC,-0.181
4,AGAGCGAG,-0.078
5,GACGTGAC,-0.0822
6,CGGACGTC,-0.081
7,ACCCAGAT,0.0125
8,ATAAGTCC,-0.0367
9,TCGAAGCA,-0.118
10,CGCCATAA,-0.108
11,GAGAACAC,-0.0603
12,GAACCACA,0.0278
13,CGGTACGC,-0.0607
14,GGGCAGTA,-0.0196
15,GGGTCACA,-0.169
16,CCTGTTCC,-0.055
17,CGTCGCAC,0.0641
18,ACGGGATG,-0.0724
19,AGATTTCA,0.148
20,TATTAAGA,0.0777
21,ATCTATTC,0.0368
22,GTATTTGA,0.178
23,GGAGCGAA,0.0768
24,ATGGCATC,-0.0571
25,CCCAAAGA,0.18

row,Sequence,PBM E-score
1,CAGGTGTC,-0.16
2,AGCCTCTG,-0.135
3,GATCTAGA,-0.0902
4,ACATCCAT,-0.0954
5,AACTAAGA,0.123
6,GAAAGCGA,0.0278
7,AACTGCTA,0.0158
8,GACAGTGA,0.0565
9,TACACGCA,-0.16
10,TAAGCCAA,0.00854
11,ACACAATA,0.199
12,ATCTTGTA,-0.0683
13,TACGGACA,-0.0887
14,AGAATGTC,-0.186
15,ATGGAAGG,-0.0965
16,GATCCGTA,-0.105
17,CCTTGAGC,0.0231
18,CACAACGG,-0.204
19,CATGGCCG,0.121
20,CTTCGATC,-0.0994
21,TGCACACA,-0.157
22,ATGGTACC,-0.0804

# From the supplement of paper PMC3334620
